# The supplement of paper PMC8728848
# The other results are listed elsewhere or left out.
# Assays:
# Assay in all cases: glycan array binding signal (z-score within array); higher = stronger binding
# Details in all cases: glycan notation: IUPAC condensed, linker removed
# [1] = target: Neu5Ac(a2-8)Neu5Ac
# Method in brief: (§1)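 Negative Z-scores can be read as non-binding. The Z-score is calculated within each array and then averaged across arrays of one protein sequence at different concentrations or buffers and across linkers. Arrays, 3228 in all, were curated from the Consortium for Functional Glycomics database and kept only where the protein sequence was available.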
# [2] = target: Neu5Ac(a2-8)Neu5Ac(a2-3)Gal(b1-3)GalNAc(b1-4)[Neu5Ac(a2-3)]Gal(b1-4)Glc
# Method in brief: as §1
# [3] = target: Neu5Ac(a2-8)Neu5Ac(a2-3)Gal(b1-3)GalNAc(b1-4)[Neu5Ac(a2-8)Neu5Ac(a2-3)]Gal(b1-4)Glc
# Method in brief: as §1
# [4] = target: Neu5Ac(a2-8)Neu5Ac(a2-3)Gal(b1-4)Glc
# Method in brief: as §1
# [5] = target: Neu5Ac(a2-8)Neu5Ac(a2-3)Gal(b1-4)GlcNAc
# Method in brief: as §1
# [6] = target: Neu5Ac(a2-8)Neu5Ac(a2-3)[Gal(b1-3)GalNAc(b1-4)]Gal(b1-4)Glc
# Method in brief: as §1
# [7] = target: Neu5Ac(a2-8)Neu5Ac(a2-3)[GalNAc(b1-4)]Gal(b1-4)Glc
# Method in brief: as §1
# [8] = target: Neu5Ac(a2-8)Neu5Ac(a2-8)Neu5Ac
# Method in brief: as §1
# [9] = target: Neu5Ac(a2-8)Neu5Ac(a2-8)Neu5Ac(a2-3)Gal(b1-4)Glc
# Method in brief: as §1
# [10] = target: Neu5Ac(a2-8)Neu5Ac(a2-8)Neu5Ac(a2-3)[Gal(b1-3)GalNAc(b1-4)]Gal(b1-4)Glc
# Method in brief: as §1
# [11] = target: Neu5Ac(a2-8)Neu5Ac(a2-8)Neu5Ac(a2-3)[GalNAc(b1-4)]Gal(b1-4)Glc
# Method in brief: as §1
# [12] = target: Neu5Ac(a2-8)Neu5Ac(a2-8)Neu5Ac(a2-8)Neu5Ac(a2-3)[GalNAc(b1-4)]Gal(b1-4)Glc
# Method in brief: as §1
# [13] = target: Neu5Ac(a2-8)Neu5Gc(a2-3)Gal(b1-4)GlcNAc
# Method in brief: as §1
# [14] = target: Neu5Ac(b2-6)Gal(b1-4)GlcNAc
# Method in brief: as §1
# [15] = target: Neu5Ac(b2-6)GalNAc
# Method in brief: as §1
# [16] = target: Neu5Ac9Ac(a2-3)Gal(b1-4)GlcNAc
# Method in brief: as §1
# [17] = target: Neu5Ac9Ac(a2-6)Gal(b1-4)GlcNAc
# Method in brief: as §1
# [18] = target: Neu5Gc(a2-3)Gal(b1-3)GlcNAc
# Method in brief: as §1
# [19] = target: Neu5Gc(a2-3)Gal(b1-3)[Fuc(a1-4)]GlcNAc
# Method in brief: as §1
# [20] = target: Neu5Gc(a2-3)Gal(b1-4)Glc
# Method in brief: as §1
# [21] = target: Neu5Gc(a2-3)Gal(b1-4)GlcNAc
# Method in brief: as §1
# [22] = target: Neu5Gc(a2-3)Gal(b1-4)GlcNAc(b1-3)Gal(b1-4)GlcNAc(b1-2)Man(a1-3)[Neu5Gc(a2-3)Gal(b1-4)GlcNAc(b1-3)Gal(b1-4)GlcNAc(b1-2)Man(a1-6)]Man(b1-4)GlcNAc(b1-4)GlcNAc
# Method in brief: as §1
# [23] = target: Neu5Gc(a2-3)Gal(b1-4)[Fuc(a1-3)]GlcNAc
# Method in brief: as §1
# [24] = target: Neu5Gc(a2-6)Gal(b1-4)GlcNAc
# Method in brief: as §1
# [25] = target: Neu5Gc(a2-6)GalNAc
# Method in brief: as §1
# [26] = target: Neu5Gc(a2-8)Neu5Ac(a2-3)Gal(b1-4)GlcNAc
# Method in brief: as §1
# [27] = target: Neu5Gc(a2-8)Neu5Gc(a2-3)Gal(b1-4)GlcNAc
# Method in brief: as §1
# [28] = target: Neu5Gc(a2-8)Neu5Gc(a2-3)Gal(b1-4)GlcNAc(b1-3)Gal(b1-4)GlcNAc
# Method in brief: as §1
# [29] = target: Neu5Gc(a2-8)Neu5Gc(a2-6)Gal(b1-4)GlcNAc
# Method in brief: as §1
# [30] = target: Neu5Gc(b2-6)Gal(b1-4)GlcNAc
# Method in brief: as §1
binder,measurement,setting,value
Pbx1 (Cryptococcus neoformans) (protein) ATTKCLVSGDQDSINNALALGGEGTTVTLCPGSVHRLNSSIIFTAPSQTLTTLGNPKDRNRAMLVVDGEDLACAIRADCKQCSHAMIRSLVIDGNRPQLLRIPKGDALIEVGNAESQTVRDCKLYEPRGWSALHFREGDERQCRFGHIVDNEIGPCGEEWDDEYDSMDETKPLWGNPRADGISLACKDSIVERNVVYDATDGAIVLFGSAGSTVKNNHVYARTRVILGGINLVDYEPWDGDYTNVKVHHNHLYALGRYFKVGIVIGPASWSDDTESVVHSASVTDNEFSGGYWGYGIVVASAKNFEVLRNKVIWDGEQGVARFSGVPGSRCPKAPENGKPTAFLINRGSAKGIFQDDFVNGEVQHIICLNPDQDPPYKPWRFRDSPEAIAAKQAENPTANSAFDSRIAEALVSYQMSLLNSMDAMTQKVEHLTNPIVDDALPFVHEHERAEADKKARQEASRKEKESGNKDVDMLNVKVEELEKSGRRLKKALDGLKSDFEGLSGRLKKSADENKPIIETIFVTSQNLLLGATSQQN,glycan array binding signal (z-score),[1],-0.43
same,glycan array binding signal (z-score),[2],-0.124
same,glycan array binding signal (z-score),[3],-0.622
same,glycan array binding signal (z-score),[4],-0.317
same,glycan array binding signal (z-score),[5],0.133
same,glycan array binding signal (z-score),[6],-0.39
same,glycan array binding signal (z-score),[7],-0.012
same,glycan array binding signal (z-score),[8],-0.162
same,glycan array binding signal (z-score),[9],-0.451
same,glycan array binding signal (z-score),[10],-0.609
same,glycan array binding signal (z-score),[11],0.643
same,glycan array binding signal (z-score),[12],-0.11
same,glycan array binding signal (z-score),[13],-0.306
same,glycan array binding signal (z-score),[14],-0.212
same,glycan array binding signal (z-score),[15],-0.769
same,glycan array binding signal (z-score),[16],-0.26
same,glycan array binding signal (z-score),[17],-0.625
same,glycan array binding signal (z-score),[18],-0.531
same,glycan array binding signal (z-score),[19],-0.06
same,glycan array binding signal (z-score),[20],-0.927
same,glycan array binding signal (z-score),[21],-0.796
same,glycan array binding signal (z-score),[22],-0.216
same,glycan array binding signal (z-score),[23],0.018
same,glycan array binding signal (z-score),[24],-0.877
same,glycan array binding signal (z-score),[25],-0.017
same,glycan array binding signal (z-score),[26],-0.771
same,glycan array binding signal (z-score),[27],-0.738
same,glycan array binding signal (z-score),[28],-0.058
same,glycan array binding signal (z-score),[29],-0.615
same,glycan array binding signal (z-score),[30],-0.471
